Data from the supplement of paper PMC8728848.
Some of the results follow.

What was measured:
Test in all cases: glycan array binding signal (z-score within array); higher = stronger binding
Details in all cases: glycan notation: IUPAC condensed, linker removed
[1] = target: Fuc(a1-2)Gal
In short: (§1)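 Negative Z-scores can be read as non-binding. The Z-score is calculated within each array and then averaged across arrays of one protein sequence at different concentrations or buffers and across linkers. Arrays, 3228 in all, were curated from the Consortium for Functional Glycomics database and kept only where the protein sequence was available.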

[2] = target: Fuc(a1-2)Gal(b1-3)GalNAc
In short: as §1

[3] = target: Fuc(a1-2)Gal(b1-3)GalNAc(a1-3)[Fuc(a1-2)]Gal(b1-4)Glc
In short: as §1

[4] = target: Fuc(a1-2)Gal(b1-3)GalNAc(a1-3)[Fuc(a1-2)]Gal(b1-4)GlcNAc
In short: as §1

[5] = target: Fuc(a1-2)Gal(b1-3)GalNAc(b1-3)Gal
In short: as §1

[6] = target: Fuc(a1-2)Gal(b1-3)GalNAc(b1-3)Gal(a1-4)Gal(b1-4)Glc
In short: as §1

[7] = target: Fuc(a1-2)Gal(b1-3)GalNAc(b1-4)[Neu5Ac(a2-3)]Gal(b1-4)Glc
In short: as §1

[8] = target: Fuc(a1-2)Gal(b1-3)GlcNAc
In short: as §1

[9] = target: Fuc(a1-2)Gal(b1-3)GlcNAc(b1-2)Man(a1-3)[Fuc(a1-2)Gal(b1-3)GlcNAc(b1-2)Man(a1-6)]Man(b1-4)GlcNAc(b1-4)GlcNAc
In short: as §1

[10] = target: Fuc(a1-2)Gal(b1-3)GlcNAc(b1-2)Man(a1-3)[Fuc(a1-2)Gal(b1-3)GlcNAc(b1-2)Man(a1-6)]Man(b1-4)GlcNAc(b1-4)[Fuc(a1-6)]GlcNAc
In short: as §1

[11] = target: Fuc(a1-2)Gal(b1-3)GlcNAc(b1-3)Gal(b1-4)Glc
In short: as §1

[12] = target: Fuc(a1-2)Gal(b1-3)GlcNAc(b1-3)GalNAc
In short: as §1

[13] = target: Fuc(a1-2)Gal(b1-3)GlcNAc(b1-3)[Fuc(a1-2)Gal(b1-3)GlcNAc(b1-6)]GalNAc
In short: as §1

[14] = target: Fuc(a1-2)Gal(b1-3)GlcNAc(b1-3)[Gal(b1-4)GlcNAc(b1-6)]Gal(b1-4)Glc
In short: as §1

[15] = target: Fuc(a1-2)Gal(b1-3)GlcNAc(b1-3)[Neu5Ac(a2-6)Gal(b1-4)GlcNAc(b1-6)]Gal(b1-4)Glc
In short: as §1

[16] = target: Fuc(a1-2)Gal(b1-3)GlcNAc6S
In short: as §1

[17] = target: Fuc(a1-2)Gal(b1-3)[Fuc(a1-4)]GlcNAc
In short: as §1

[18] = target: Fuc(a1-2)Gal(b1-3)[Fuc(a1-4)]GlcNAc(b1-2)Man(a1-3)[Fuc(a1-2)Gal(b1-3)[Fuc(a1-4)]GlcNAc(b1-2)Man(a1-3)]Man(b1-4)GlcNAc(b1-4)GlcNAc
In short: as §1

[19] = target: Fuc(a1-2)Gal(b1-3)[Fuc(a1-4)]GlcNAc(b1-2)Man(a1-3)[Fuc(a1-2)Gal(b1-3)[Fuc(a1-4)]GlcNAc(b1-2)Man(a1-6)]Man(b1-4)GlcNAc(b1-4)[Fuc(a1-6)]GlcNAc(b1-4)[Fuc(a1-6)]GlcNAc
In short: as §1

[20] = target: Fuc(a1-2)Gal(b1-3)[Fuc(a1-4)]GlcNAc(b1-3)[Fuc(a1-3)[Gal(b1-4)]GlcNAc(b1-6)]Gal(b1-4)Glc
In short: as §1

[21] = target: Fuc(a1-2)Gal(b1-3)[Fuc(a1-4)]GlcNAc(b1-3)[Gal(b1-4)GlcNAc(b1-6)]Gal(b1-4)Glc
In short: as §1

[22] = target: Fuc(a1-2)Gal(b1-4)Fuc(a1-3)]GlcNAc(b1-2)Man(a1-3)[Fuc(a1-2)Gal(b1-4)[Fuc(a1-3)]GlcNAc(b1-2)Man(a1-6)]Man(b1-4)GlcNAc(b1-4)GlcNAc
In short: as §1

[23] = target: Fuc(a1-2)Gal(b1-4)Glc
In short: as §1

[24] = target: Fuc(a1-2)Gal(b1-4)Glc6S
In short: as §1

[25] = target: Fuc(a1-2)Gal(b1-4)GlcNAc
In short: as §1

[26] = target: Fuc(a1-2)Gal(b1-4)GlcNAc(b1-2)Man
In short: as §1

[27] = target: Fuc(a1-2)Gal(b1-4)GlcNAc(b1-2)Man(a1-3)[Fuc(a1-2)Gal(b1-4)GlcNAc(b1-2)Man(a1-6)]Man(b1-4)GlcNAc(b1-4)GlcNAc
In short: as §1

[28] = target: Fuc(a1-2)Gal(b1-4)GlcNAc(b1-2)Man(a1-3)[Fuc(a1-2)Gal(b1-4)GlcNAc(b1-2)Man(a1-6)]Man(b1-4)GlcNAc(b1-4)[Fuc(a1-6)]GlcNAc
In short: as §1

[29] = target: Fuc(a1-2)Gal(b1-4)GlcNAc(b1-2)[Fuc(a1-2)Gal(b1-4)GlcNAc(b1-4)]Man(a1-3)[Fuc(a1-2)Gal(b1-4)GlcNAc(b1-2)Man(a1-6)]Man(b1-4)GlcNAc(b1-4)GlcNAc
In short: as §1

[30] = target: Fuc(a1-2)Gal(b1-4)GlcNAc(b1-3)Gal(b1-4)GlcNAc
In short: as §1

[31] = target: Fuc(a1-2)Gal(b1-4)GlcNAc(b1-3)Gal(b1-4)GlcNAc(b1-2)Man(a1-3)[Fuc(a1-2)Gal(b1-4)GlcNAc(b1-3)Gal(b1-4)GlcNAc(b1-2)Man(a1-6)]Man(b1-4)GlcNAc(b1-4)GlcNAc
In short: as §1

[32] = target: Fuc(a1-2)Gal(b1-4)GlcNAc(b1-3)Gal(b1-4)GlcNAc(b1-3)Gal(b1-4)GlcNAc
In short: as §1

[33] = target: Fuc(a1-2)Gal(b1-4)GlcNAc(b1-3)GalNAc
In short: as §1

[34] = target: Fuc(a1-2)Gal(b1-4)GlcNAc(b1-3)[Fuc(a1-2)Gal(b1-4)GlcNAc(b1-6)]GalNAc
In short: as §1

[35] = target: Fuc(a1-2)Gal(b1-4)GlcNAc(b1-3)[Fuc(a1-3)[Gal(b1-4)]GlcNAc(b1-6)]Gal(b1-4)Glc
In short: as §1

[36] = target: Fuc(a1-2)Gal(b1-4)GlcNAc(b1-6)GalNAc
In short: as §1

[37] = target: Fuc(a1-2)Gal(b1-4)GlcNAc6S
In short: as §1

[38] = target: Fuc(a1-2)Gal(b1-4)[Fuc(a1-3)]GlcNAc
In short: as §1

[39] = target: Fuc(a1-2)Gal(b1-4)[Fuc(a1-3)]GlcNAc(b1-2)Man(a1-3)[Fuc(a1-2)Gal(b1-4)[Fuc(a1-3)]GlcNAc(b1-2)Man(a1-6)]Man(b1-4)GlcNAc(b1-4)[Fuc(a1-6)]GlcNAc
In short: as §1

[40] = target: Fuc(a1-2)Gal(b1-4)[Fuc(a1-3)]GlcNAc(b1-2)[Fuc(a1-2)Gal(b1-4)[Fuc(a1-3)]GlcNAc(b1-4)]Man(a1-3)[Fuc(a1-2)Gal(b1-4)[Fuc(a1-3)]GlcNAc(b1-2)Man(a1-6)]Man(b1-4)GlcNAc(b1-4)GlcNAc
In short: as §1

[41] = target: Fuc(a1-2)Gal(b1-4)[Fuc(a1-3)]GlcNAc(b1-3)Gal(b1-4)[Fuc(a1-3)]GlcNAc
In short: as §1

[42] = target: Fuc(a1-2)Gal(b1-4)[Fuc(a1-3)]GlcNAc(b1-3)Gal(b1-4)[Fuc(a1-3)]GlcNAc(b1-3)Gal(b1-4)[Fuc(a1-3)]GlcNAc
In short: as §1

[43] = target: Fuc(a1-2)Gal(b1-4)[Fuc(a1-3)]GlcNAc(b1-3)GalNAc
In short: as §1

[44] = target: Fuc(a1-2)Gal(b1-4)[Fuc(a1-3)]GlcNAc(b1-3)[Neu5Ac(a2-6)Gal(b1-4)GlcNAc(b1-6)]Gal(b1-4)Glc
In short: as §1

[45] = target: Fuc(a1-2)Gal3S(b1-4)GlcNAc
In short: as §1

[46] = target: Fuc(a1-2)Gal6S(b1-3)GlcNAc
In short: as §1

[47] = target: Fuc(a1-2)Gal6S(b1-3)GlcNAc6S
In short: as §1

[48] = target: Fuc(a1-2)Gal6S(b1-4)Glc
In short: as §1

[49] = target: Fuc(a1-2)Gal6S(b1-4)Glc6S
In short: as §1

[50] = target: Fuc(a1-2)[Gal(a1-3)]Gal
In short: as §1

[51] = target: Fuc(a1-2)[Gal(a1-3)]Gal(b1-3)GalNAc
In short: as §1

[52] = target: Fuc(a1-2)[Gal(a1-3)]Gal(b1-3)GalNAc(b1-3)Gal(a1-4)Gal(b1-4)Glc
In short: as §1

[53] = target: Fuc(a1-2)[Gal(a1-3)]Gal(b1-3)GlcNAc
In short: as §1

[54] = target: Fuc(a1-2)[Gal(a1-3)]Gal(b1-3)GlcNAc(b1-2)Man(a1-3)[Fuc(a1-2)[Gal(a1-3)]Gal(b1-3)GlcNAc(b1-2)Man(a1-6)]Man(b1-4)GlcNAc(b1-4)GlcNAc
In short: as §1

[55] = target: Fuc(a1-2)[Gal(a1-3)]Gal(b1-3)GlcNAc(b1-2)Man(a1-3)[Fuc(a1-2)[Gal(a1-3)]Gal(b1-3)GlcNAc(b1-2)Man(a1-6)]Man(b1-4)GlcNAc(b1-4)[Fuc(a1-6)]GlcNAc
In short: as §1

[56] = target: Fuc(a1-2)[Gal(a1-3)]Gal(b1-3)GlcNAc(b1-3)GalNAc
In short: as §1

[57] = target: Fuc(a1-2)[Gal(a1-3)]Gal(b1-3)GlcNAc(b1-6)GalNAc
In short: as §1

[58] = target: Fuc(a1-2)[Gal(a1-3)]Gal(b1-4)Glc
In short: as §1

[59] = target: Fuc(a1-2)[Gal(a1-3)]Gal(b1-4)GlcNAc
In short: as §1

[60] = target: Fuc(a1-2)[Gal(a1-3)]Gal(b1-4)GlcNAc(b1-2)Man
In short: as §1

B1: AT1G15820(2) (Arabidopsis thaliana), Q9LMQ2 (protein)
chain: MAMAVSGAVLSGLGSSFLTGGKRGATALASGVGTGAQRVGRKTLIVAAAAAQPKKSWIPAVKGGGNFLDPEWLDGSLPGDFGFDPLGLGKDPAFLKWYREAELIHGRWAMAAVLGIFVGQAWSGVAWFEAGAQPDAIAPFSFGSLLGTQLLLMGWVESKRWVDFFNPDSQSVEWATPWSKTAENFANYTGDQGYPGGRFFDPLGLAGKNRDGVYEPDFEKLERLKLAEIKHSRLAMVAMLIFYFEAGQGKTPLGALGL
[1]
  glycan array binding signal (z-score): 0.517
[2]
  glycan array binding signal (z-score): -0.486
[3]
  glycan array binding signal (z-score): -0.155
[4]
  glycan array binding signal (z-score): 0.079
[5]
  glycan array binding signal (z-score): 0.168
[6]
  glycan array binding signal (z-score): -0.595
[7]
  glycan array binding signal (z-score): 0.126
[8]
  glycan array binding signal (z-score): -0.442
[9]
  glycan array binding signal (z-score): 0.522
[10]
  glycan array binding signal (z-score): 0.063
[11]
  glycan array binding signal (z-score): -0.154
[12]
  glycan array binding signal (z-score): -0.637
[13]
  glycan array binding signal (z-score): 0.037
[14]
  glycan array binding signal (z-score): -0.18
[15]
  glycan array binding signal (z-score): -0.367
[16]
  glycan array binding signal (z-score): 0.649
[17]
  glycan array binding signal (z-score): -0.24
[18]
  glycan array binding signal (z-score): 0.497
[19]
  glycan array binding signal (z-score): -0.001
[20]
  glycan array binding signal (z-score): -0.344
[21]
  glycan array binding signal (z-score): 0.151
[22]
  glycan array binding signal (z-score): -0.256
[23]
  glycan array binding signal (z-score): -0.536
[24]
  glycan array binding signal (z-score): -0.057
[25]
  glycan array binding signal (z-score): -0.243
[26]
  glycan array binding signal (z-score): -0.083
[27]
  glycan array binding signal (z-score): -0.533
[28]
  glycan array binding signal (z-score): -0.613
[29]
  glycan array binding signal (z-score): -0.2
[30]
  glycan array binding signal (z-score): 0.015
[31]
  glycan array binding signal (z-score): 0.501
[32]
  glycan array binding signal (z-score): 0.735
[33]
  glycan array binding signal (z-score): -0.35
[34]
  glycan array binding signal (z-score): -0.414
[35]
  glycan array binding signal (z-score): -0.041
[36]
  glycan array binding signal (z-score): -0.326
[37]
  glycan array binding signal (z-score): 0.69
[38]
  glycan array binding signal (z-score): -0.066
[39]
  glycan array binding signal (z-score): 0.034
[40]
  glycan array binding signal (z-score): 0.178
[41]
  glycan array binding signal (z-score): -0.394
[42]
  glycan array binding signal (z-score): -0.283
[43]
  glycan array binding signal (z-score): 0.194
[44]
  glycan array binding signal (z-score): -0.437
[45]
  glycan array binding signal (z-score): -0.407
[46]
  glycan array binding signal (z-score): -0.001
[47]
  glycan array binding signal (z-score): -0.176
[48]
  glycan array binding signal (z-score): -0.221
[49]
  glycan array binding signal (z-score): 0.111
[50]
  glycan array binding signal (z-score): 0.95
[51]
  glycan array binding signal (z-score): -0.022
[52]
  glycan array binding signal (z-score): -0.371
[53]
  glycan array binding signal (z-score): -0.392
[54]
  glycan array binding signal (z-score): 0.468
[55]
  glycan array binding signal (z-score): -0.129
[56]
  glycan array binding signal (z-score): -0.46
[57]
  glycan array binding signal (z-score): -0.282
[58]
  glycan array binding signal (z-score): 0.335
[59]
  glycan array binding signal (z-score): 0.32
[60]
  glycan array binding signal (z-score): -0.366
